# Values joined by “and” are separate entries in the source; they are usually repeats but may differ in a detail not shown here. Identical values can stand only once. Counter-ions that a name gives are not always drawn. Hit rate of the full screen: of about 5,800 compounds, about 620 (11%) showed activity.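 The calls were made as follows: active = score above a cut-off or among the top three wells of a plate; in these data no inactive exceeds 0.85.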 This is a selection; strong and weak results do not stand in their true shares.
# Test system: primary human hepatic stellate cells (donor 1)
# Experiment: scaled lipid accumulation score (0 = DMSO-like, 1 = nortriptyline-like); higher = stronger HSC inactivation (lipid re-accumulation), active = hit call of the paper
# Settings: 48 h
# [1] = library stock concentration: 3.33 mM
# [2] = library stock concentration: 10 mM
smiles,measurement,setting,value
C[C@]12N[C@H](Cc3ccccc31)c1ccccc12 [Dizocilpine maleate],scaled lipid accumulation score,,inactive: 0.219
same,scaled lipid accumulation score,library stock concentration: 5.9 mM,inactive: 0.083
C[C@]12N[C@H](Cc3ccccc31)c1ccccc12 [MK-801 (Dizocilpine)],scaled lipid accumulation score,[1],inactive: ≤ 0
same,scaled lipid accumulation score,[2],inactive: ≤ 0
C[N+]1([O-])[C@@H]2C[C@@H](OC(=O)[C@H](CO)c3ccccc3)C[C@H]1[C@@H]1O[C@@H]12 (some centres undefined) [Scopolamin-N-oxide hydrobromide],scaled lipid accumulation score,,inactive: 0.093
CC(=O)Nc1ccc(OC[C@](C)(O)C(=O)Nc2ccc([N+](=O)[O-])c(C(F)(F)F)c2)cc1 [Andarine],scaled lipid accumulation score,[1],inactive: ≤ 0
same,scaled lipid accumulation score,[2],inactive: ≤ 0
Oc1cc2c(cc1O)[C@H]1c3ccccc3CN[C@@H]1CC2 (racemic),scaled lipid accumulation score,[2],inactive: 0.538
Oc1cc2c(cc1O)[C@H]1c3ccccc3CN[C@@H]1CC2 (racemic) [Dihydrexidine hydrochloride],scaled lipid accumulation score,[2],inactive: 0.823
CC(=O)O[C@H]1C[C@H](O[C@H]2[C@@H](O)C[C@H](O[C@H]3[C@@H](O)C[C@H](O[C@H]4CC[C@@]5(C)[C@H](CC[C@@H]6[C@@H]5C[C@@H](O)[C@]5(C)[C@@H](C7=CC(=O)OC7)CC[C@]65O)C4)O[C@@H]3C)O[C@@H]2C)O[C@H](C)[C@H]1O[C@@H]1O[C@H](CO)[C@@H](O)[C@H](O)[C@H]1O [Lanatoside C],scaled lipid accumulation score,,active: 1.08
CC(=O)O[C@H]1C[C@H](O[C@H]2[C@@H](O)C[C@H](O[C@H]3[C@@H](O)C[C@H](O[C@H]4CC[C@@]5(C)[C@H](CC[C@@H]6[C@@H]5C[C@@H](O)[C@]5(C)[C@@H](C7=CC(=O)OC7)CC[C@]65O)C4)O[C@@H]3C)O[C@@H]2C)O[C@H](C)[C@H]1O[C@@H]1O[C@H](CO)[C@@H](O)[C@H](O)[C@H]1O [Lanatoside c],scaled lipid accumulation score,library stock concentration: 2 mM,active: 0.894
same,scaled lipid accumulation score,[2],active: 0.892
C[C@H]1CCC[C@H](O)CCCCCc2cc(O)cc(O)c2C(=O)O1,scaled lipid accumulation score,[2],inactive: ≤ 0
COc1ccc(CCN2CCC(Nc3nc4ccccc4n3Cc3ccc(F)cc3)CC2)cc1 [Astemizole],scaled lipid accumulation score,library stock concentration: 4.4 mM,inactive: 0.824 and inactive: 0.409
same,scaled lipid accumulation score,[2],inactive: 0.475
CC(N)Cc1c[nH]c2ccc(O)cc12 (stereo not drawn) [alpha-Methyl-5-hydroxytryptamine maleate],scaled lipid accumulation score,[2],inactive: ≤ -0.055
CC(N)Cc1c[nH]c2ccc(O)cc12 (centres undefined),scaled lipid accumulation score,[2],inactive: ≤ 0
CN(N=O)c1cc(O)ccc1O [Dephostatin],scaled lipid accumulation score,[2],inactive: 0.013
CN1C[C@H](CO)C=C2c3cccc4[nH]cc(c34)C[C@H]21 [Lysergol],scaled lipid accumulation score,,inactive: ≤ 0
Oc1ccc2c3c1O[C@H]1c4c(c5ccccc5n4Cc4ccccc4)C[C@@]4(O)C(C2)N(CC2CC2)CC[C@]314 [N-Benzylnaltrindole hydrochloride],scaled lipid accumulation score,[2],inactive: 0.77
"BrC1C(Br)C(Br)C(Br)C(Br)C1Br (centres undefined) [1,2,3,4,5,6-Hexabromocyclohexane]",scaled lipid accumulation score,[2],inactive: ≤ -0.001
C[C@](O)(COc1ccc(C#N)cc1)C(=O)Nc1ccc(C#N)c(C(F)(F)F)c1,scaled lipid accumulation score,[1],inactive: 0.047
same,scaled lipid accumulation score,[2],inactive: ≤ 0
CCC(N)C(O)c1ccc(O)c(O)c1 (centres undefined) [Ethylnorepinephrine hydrochloride],scaled lipid accumulation score,library stock concentration: 8.6 mM,inactive: ≤ 0
same,scaled lipid accumulation score,[2],inactive: ≤ -0.027
CC1=C2[C@H]3OC(=O)[C@@H](C)[C@@H]3CC[C@@]2(C)C=CC1=O [alpha-Santonin],scaled lipid accumulation score,,inactive: ≤ 0
C/C=C1\C[C@@H](C)[C@](O)(CO)C(=O)OCC2=CCN3CC[C@@H](OC1=O)[C@@H]23 [Retrorsine],scaled lipid accumulation score,,inactive: ≤ 0
c1ccc(C2(c3ccccc3)CC2C2=NCCN2)cc1 (centres undefined) [Cibenzoline succinate],scaled lipid accumulation score,[2],inactive: 0.479
CCCN(CCC)C1CCc2ccc(O)cc2C1 (centres undefined) [7-Hydroxy-DPAT hydrobromide],scaled lipid accumulation score,[2],inactive: 0.006
CCCN(CCC)C1CCc2ccc(O)cc2C1 (stereo not drawn) [R-(+)-7-Hydroxy-DPAT hydrobromide],scaled lipid accumulation score,[2],inactive: ≤ -0.07
CCCN(CCC)C1CCc2ccc(O)cc2C1 (centres undefined) [(?)-7-Hydroxy-DPAT hydrobromide],scaled lipid accumulation score,[2],inactive: 0.186
NNC(N)=O [Semicarbazide hydrochloride],scaled lipid accumulation score,[2],inactive: ≤ 0
O=C[C@H](Cl)[C@@H](O)[C@H](O)[C@H](O)CO [2-Chloro-2-deoxy-D-glucose],scaled lipid accumulation score,[2],inactive: ≤ -0.07
CNCC(=O)c1ccc(O)c(O)c1,scaled lipid accumulation score,[2],inactive: ≤ 0
CNCC(=O)c1ccc(O)c(O)c1 [Adrenalone HCl],scaled lipid accumulation score,[1],inactive: ≤ 0
same,scaled lipid accumulation score,[2],inactive: ≤ -0.001
O=C(NC(=O)c1c(F)cccc1F)Nc1cc(Cl)c(OC(F)(F)C(F)C(F)(F)F)cc1Cl (centres undefined),scaled lipid accumulation score,[2],inactive: 0.572
Cc1cc2c(C(C)C)c(O)c(O)c(C=O)c2c(O)c1-c1c(C)cc2c(C(C)C)c(O)c(O)c(C=O)c2c1O,scaled lipid accumulation score,[2],active: 0.999
CN1C2CC(O)CC1C1OC12 (centres undefined) [Scopine],scaled lipid accumulation score,[1],inactive: ≤ 0
same,scaled lipid accumulation score,[2],inactive: ≤ 0
CC(C)N(CCNC(=O)CN1CCCC1=O)C(C)C [Pramiracetam],scaled lipid accumulation score,[1],inactive: ≤ 0
same,scaled lipid accumulation score,[2],inactive: ≤ 0
Cc1n[nH]c2ccc(-c3cncc(OC[C@@H](N)Cc4c[nH]c5ccccc45)c3)cc12,scaled lipid accumulation score,library stock concentration: 400 uM,active: 1
CC(C)(c1ccc(OCC2CO2)cc1)c1ccc(OCC2CO2)cc1 (centres undefined),scaled lipid accumulation score,library stock concentration: 1 mM,inactive: ≤ 0
same,scaled lipid accumulation score,[2],inactive: 0.01
same,scaled lipid accumulation score,library stock concentration: 14.7 mM,inactive: ≤ -0.012
CS(=O)(=O)O.Oc1ccc2c3c1O[C@H]1c4oc5ccccc5c4C[C@@]4(O)C(C2)N(CC2CC2)CCC314 (some centres undefined) [Naltriben methanesulfonate],scaled lipid accumulation score,[2],active: 1.11
CC(C)(C)NCC(O)c1cc(Cl)c(N)c(Cl)c1 (centres undefined) [Clenbuterol],scaled lipid accumulation score,library stock concentration: 7.2 mM,inactive: 0.063
CC(C)(C)NCC(O)c1cc(Cl)c(N)c(Cl)c1 (centres undefined) [Clenbuterol hydrochloride],scaled lipid accumulation score,,inactive: 0.003
C=C(C)[C@H]1Cc2c(ccc3c2O[C@@H]2COc4cc(OC)c(OC)cc4[C@@H]2C3=O)O1 [Rotenone],scaled lipid accumulation score,[2],inactive: ≤ 0
COC(=O)C1=CCCN(C)C1 [Arecoline hydrobromide],scaled lipid accumulation score,,inactive: 0.062
same,scaled lipid accumulation score,[2],inactive: ≤ 0
COC(=O)C1=CCCN(C)C1 [Arecoline],scaled lipid accumulation score,[1],inactive: ≤ 0
same,scaled lipid accumulation score,[2],inactive: ≤ 0
